Source: the supplement of paper PMC3334620
Over roughly 33,000 sequences, “E-score (-0.5 to 0.5)” has its median near -0.041; the highest 2% begin near 0.37. This is one part of the list.

What follows are sequences tested against T1, Ecm22 (UniProt Q05958) (assay: PBM E-score (8-mer binding enrichment) (E-score (-0.5 to 0.5)); higher = stronger / more preferred TF binding; most listed sequences are background and not binding sites). Conditions: protein concentration: 200 nM; construct: GST-full length.
T1 sequence: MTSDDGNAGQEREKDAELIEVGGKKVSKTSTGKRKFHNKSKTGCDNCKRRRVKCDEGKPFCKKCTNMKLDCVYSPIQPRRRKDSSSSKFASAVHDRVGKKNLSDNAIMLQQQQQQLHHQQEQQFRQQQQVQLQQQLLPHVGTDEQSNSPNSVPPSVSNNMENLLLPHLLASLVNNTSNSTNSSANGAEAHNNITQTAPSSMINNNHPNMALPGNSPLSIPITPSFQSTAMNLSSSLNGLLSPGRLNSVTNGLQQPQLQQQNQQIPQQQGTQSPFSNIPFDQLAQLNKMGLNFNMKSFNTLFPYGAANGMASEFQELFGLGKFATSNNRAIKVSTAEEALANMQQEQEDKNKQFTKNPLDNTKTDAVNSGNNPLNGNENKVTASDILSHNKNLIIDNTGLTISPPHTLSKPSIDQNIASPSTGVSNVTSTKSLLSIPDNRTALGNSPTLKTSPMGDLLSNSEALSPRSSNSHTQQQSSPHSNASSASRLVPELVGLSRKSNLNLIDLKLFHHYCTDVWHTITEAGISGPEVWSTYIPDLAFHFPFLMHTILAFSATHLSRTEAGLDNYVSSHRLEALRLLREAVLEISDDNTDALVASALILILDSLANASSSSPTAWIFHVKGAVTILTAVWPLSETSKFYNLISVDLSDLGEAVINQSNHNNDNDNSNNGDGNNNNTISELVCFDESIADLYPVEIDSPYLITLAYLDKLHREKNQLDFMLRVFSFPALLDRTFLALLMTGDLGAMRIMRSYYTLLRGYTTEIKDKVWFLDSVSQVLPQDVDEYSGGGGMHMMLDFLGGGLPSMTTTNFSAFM
Description: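 Universal 'all 10-mer' protein binding microarrays (Agilent AMADID 015681) probed with GST-tagged S. cerevisiae TFs (full-length or DBD) made by in vitro transcription/translation (PURExpress), about 100-200 nM. Bound TF was detected with fluorescent anti-GST. Each ungapped 8-mer (which stands for itself and its reverse complement) is scored by the PBM enrichment score (E-score), a modified Wilcoxon-Mann-Whitney statistic from -0.5 to +0.5, computed with the Universal PBM Analysis Suite. Scale: above 0.35 generally sequence-specific binding.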

Going from GGAGAAAC to CAAGAGAC, the “PBM E-score” value falls from 0.0922 to -0.241.

Compared with ATCGCTGA, CGCGGCGC is lower in “PBM E-score” value: 0.169 for the first, -0.0391 for the second.

Compared with ACATAGAT, CCCCTTTC is lower in “PBM E-score” value: -0.159 for the first, -0.167 for the second.

First: CCCCACAC
Second: ATGTGATG
The “PBM E-score” value of the first is higher: -0.107 for the first, -0.192 for the second.

Going from ACGGCTAT to GGGCTCGA, the “PBM E-score” value falls from -0.0333 to -0.0942.

Compared with AAAATTGG, CCGTTGTC is higher in “PBM E-score” value: -0.105 for the first, 0.202 for the second.

Compared with GGTGGTTA, CAGTAGAC is lower in “PBM E-score” value: -0.0845 for the first, -0.157 for the second.

Going from GAATTAAC to CTGGTTGC, the “PBM E-score” value falls from 0.155 to 0.0737.

First: AACACAGA
Second: CACGGCGC
The “PBM E-score” value of the first is higher: -0.036 for the first, -0.191 for the second.

First: AGCCACTG
Second: CATCCTAC
The “PBM E-score” value of the first is higher: 0.101 for the first, -0.0755 for the second.

Going from GAATCTAA to GCGATTTA, the “PBM E-score” value falls from 0.00748 to -4e-05.

Compared with GATAGGGC, AGCTGGCC is higher in “PBM E-score” value: -0.335 for the first, -0.155 for the second.

Compared with AAAGGAAT, CCCCCGAA is lower in “PBM E-score” value: -0.0428 for the first, -0.302 for the second.

First: GCCGGAAA
Second: TAGTCACA
The “PBM E-score” value of the first is higher: -0.0143 for the first, -0.0449 for the second.

Compared with CCCGTATC, CTAAGGAG is lower in “PBM E-score” value: 0.327 for the first, -0.0285 for the second.

Compared with GAGCCTCA, GGTTGCAC is higher in “PBM E-score” value: -0.179 for the first, -0.129 for the second.

Compared with GAAGCTCC, CCCAAGCA is lower in “PBM E-score” value: -0.0255 for the first, -0.164 for the second.

Going from CATACAGC to GCTCCAGC, the “PBM E-score” value rises from -0.185 to 0.0148.

Going from AGTCGTAA to GCCACGGC, the “PBM E-score” value falls from 0.395 to -0.167.

Compared with GGGAGCAA, GGCACGGA is lower in “PBM E-score” value: -0.0345 for the first, -0.17 for the second.

First: CCTCTCTA
Second: CTCTTGTA
The “PBM E-score” value of the first is lower: -0.267 for the first, -0.199 for the second.

First: GCGCGTGA
Second: AAAACCAC
The “PBM E-score” value of the first is higher: 0.17 for the first, -0.0489 for the second.

Going from GGGTACAC to ACACTAGG, the “PBM E-score” value falls from 0.0704 to -0.131.

Compared with CTCCATAC, GACGCTTA is higher in “PBM E-score” value: 0.0437 for the first, 0.219 for the second.

Going from ACGTAGAT to AGGACCAC, the “PBM E-score” value falls from 0.0678 to -0.205.

Compared with GATTCCAC, GGCTTCGA is higher in “PBM E-score” value: -0.125 for the first, 0.015 for the second.

Going from CACAAAGA to CGCGCCAG, the “PBM E-score” value rises from -0.147 to -0.0745.

First: GGCGGGAC
Second: ACCTCGTC
The “PBM E-score” value of the first is lower: -0.169 for the first, 0.17 for the second.

Going from GTCCTTTA to GTGCCTCA, the “PBM E-score” value falls from -0.0994 to -0.289.

Going from GGTGGAAA to GGATAATA, the “PBM E-score” value rises from -0.15 to 0.0306.

First: AAGGTGAC
Second: AAAGATTC
The “PBM E-score” value of the first is lower: -0.185 for the first, -0.0192 for the second.

First: CTAACATA
Second: GTCGCAAC
The “PBM E-score” value of the first is lower: 0.0634 for the first, 0.186 for the second.

First: CACGCGGC
Second: CGATGGGC
The “PBM E-score” value of the first is lower: -0.0668 for the first, 0.0572 for the second.

First: CAATACTC
Second: ATGAGCTC
The “PBM E-score” value of the first is higher: -0.00496 for the first, -0.0302 for the second.

Going from CTAGAAAA to CTCTGTTC, the “PBM E-score” value falls from -0.031 to -0.23.

First: TCTGATAA
Second: TATCCAAA
The “PBM E-score” value of the first is lower: -0.271 for the first, 0.08 for the second.

Going from GCTAAAGA to GGTAAAAA, the “PBM E-score” value falls from -0.0261 to -0.0264.

First: ACTGTCGC
Second: AAGGACAC
The “PBM E-score” value of the first is higher: 0.012 for the first, -0.168 for the second.

First: ATATATAT
Second: GCTCACAA
The “PBM E-score” value of the first is higher: -0.0111 for the first, -0.0448 for the second.

First: ATATCAAC
Second: CTAGGCTC
The “PBM E-score” value of the first is lower: -0.103 for the first, -0.0741 for the second.

Compared with ACCGCGTG, CGTCCAAC is lower in “PBM E-score” value: -0.0457 for the first, -0.156 for the second.

First: GTCCCGAA
Second: AAGACACA
The “PBM E-score” value of the first is higher: -0.0658 for the first, -0.167 for the second.

Going from AAATATCT to CAGCATGA, the “PBM E-score” value falls from -0.0801 to -0.331.

Compared with ACCGGGTA, CGATGTCA is lower in “PBM E-score” value: 0.18 for the first, 0.0461 for the second.

Compared with ACGTCTCT, CCATCATC is higher in “PBM E-score” value: -0.0325 for the first, 0.00724 for the second.

Going from AACGCTAG to TCCAGGCA, the “PBM E-score” value rises from -0.143 to -0.00255.

Going from AGAACGAG to AACCTTTA, the “PBM E-score” value falls from 0.45 to -0.146.

Going from CCGTCCTC to AAACCGGA, the “PBM E-score” value falls from -0.0393 to -0.0778.

Going from CTTACGGC to CTGGCGCA, the “PBM E-score” value falls from 0.148 to -0.23.

Going from GCTTTGCA to AACACCCC, the “PBM E-score” value falls from -0.191 to -0.359.

First: GTGCCCAC
Second: CCAAGTAA
The “PBM E-score” value of the first is lower: -0.234 for the first, 0.0825 for the second.

Compared with CTTTTAGA, GACGAGTA is higher in “PBM E-score” value: 0.00647 for the first, 0.117 for the second.

Going from AGAGTTAT to CCCCCGCC, the “PBM E-score” value falls from -0.16 to -0.351.

Compared with GACACAGC, ACTTACGA is higher in “PBM E-score” value: -0.133 for the first, 0.393 for the second.

First: AGGGTGGA
Second: ATAGTATG
The “PBM E-score” value of the first is lower: -0.16 for the first, 0.0828 for the second.

Compared with CAGTGTAG, ATAACCTC is lower in “PBM E-score” value: -0.0425 for the first, -0.0672 for the second.

Going from CACCCGCC to GAAAAACA, the “PBM E-score” value falls from 0.0626 to 0.00133.

Compared with CGGGAAGC, GGAACTAC is higher in “PBM E-score” value: -0.0787 for the first, 0.0311 for the second.

First: ACCTCAAA
Second: TAGGAGGA
The “PBM E-score” value of the first is higher: 0.0237 for the first, -0.23 for the second.

First: CCCTGGCA
Second: ATAGAAAT
The “PBM E-score” value of the first is lower: -0.183 for the first, 0.0808 for the second.

Going from CGACTATC to ATCCCCAA, the “PBM E-score” value falls from 0.167 to -0.219.

Going from TAGGGCGA to CAAGTCTA, the “PBM E-score” value rises from -0.115 to -0.0401.

Going from CCTGGTCC to TAATGAGA, the “PBM E-score” value rises from -0.206 to -0.115.

First: AGTGATTA
Second: AATCTGAC
The “PBM E-score” value of the first is higher: 0.092 for the first, -0.216 for the second.

Going from CCCTCCGA to GGCTCTCA, the “PBM E-score” value falls from -0.0959 to -0.299.

First: CATACTTA
Second: AAGATCAG
The “PBM E-score” value of the first is higher: -0.0493 for the first, -0.0549 for the second.

First: ACTCGGTA
Second: TAGCCCTA
The “PBM E-score” value of the first is higher: 0.233 for the first, -0.271 for the second.

Compared with CCTATTCG, CTCTGATA is lower in “PBM E-score” value: 0.0854 for the first, -0.216 for the second.

First: CGCGCAGC
Second: AAAGTCGA
The “PBM E-score” value of the first is lower: -0.0187 for the first, 0.00308 for the second.

First: GAGCACGC
Second: AATCATAC
The “PBM E-score” value of the first is lower: 0.0715 for the first, 0.264 for the second.

Compared with AACACGCT, ACCGTCTA is lower in “PBM E-score” value: -0.0531 for the first, -0.0861 for the second.

First: CTGTGTCC
Second: CTTTTCTC
The “PBM E-score” value of the first is lower: -0.164 for the first, -0.0797 for the second.

Going from ACTCTAGC to AACTGCTA, the “PBM E-score” value rises from -0.211 to -0.118.

Going from GAAAGCGA to AGCCTCTG, the “PBM E-score” value falls from 0.202 to -0.161.

First: AACTAAGA
Second: GATCTAGA
The “PBM E-score” value of the first is higher: -0.0189 for the first, -0.101 for the second.

Compared with ACATCCAT, CAGGTGTC is lower in “PBM E-score” value: -0.068 for the first, -0.137 for the second.

Going from CCCAAAGA to AGAATGTC, the “PBM E-score” value rises from -0.236 to -0.0576.

First: TACGGACA
Second: ATCTTGTA
The “PBM E-score” value of the first is higher: 0.258 for the first, -0.00043 for the second.

Going from TACACGCA to TAAGCCAA, the “PBM E-score” value falls from -0.0384 to -0.0583.

First: ACACAATA
Second: GACAGTGA
The “PBM E-score” value of the first is lower: -0.112 for the first, -0.107 for the second.

Compared with GAACCACA, GAGAACAC is lower in “PBM E-score” value: 0.0261 for the first, -0.0884 for the second.

Compared with CGCCATAA, TCGAAGCA is higher in “PBM E-score” value: -0.192 for the first, -0.103 for the second.

Going from ATAAGTCC to ACCCAGAT, the “PBM E-score” value falls from -0.0838 to -0.203.

First: GACGTGAC
Second: CGGACGTC
The “PBM E-score” value of the first is lower: 0.0525 for the first, 0.105 for the second.

First: ATGGCATC
Second: GGAGCGAA
The “PBM E-score” value of the first is lower: -0.00566 for the first, 0.264 for the second.

First: GTATTTGA
Second: ATCTATTC
The “PBM E-score” value of the first is lower: -0.00911 for the first, 0.0461 for the second.
